# Results reported in paper PMC4336329 (PLoS ONE, 2015).
# Screen size: about 310,000 compounds; about 14,000 (4.5%) showed an effect of 50% or more. Effects have a minus sign here. Some of the results follow.
# Molecular target: human ether-à-go-go-related gene (hERG) potassium channel (human, UniProt Q12809)
# Assay: primary screen, population patch clamp on CHO cells stably expressing hERG
# 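Further: peak tail current of the secondary pulse compared with the same well before compound.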
# Sequence of human ether-à-go-go-related gene (hERG) potassium channel (Q12809 whole entry, looked up): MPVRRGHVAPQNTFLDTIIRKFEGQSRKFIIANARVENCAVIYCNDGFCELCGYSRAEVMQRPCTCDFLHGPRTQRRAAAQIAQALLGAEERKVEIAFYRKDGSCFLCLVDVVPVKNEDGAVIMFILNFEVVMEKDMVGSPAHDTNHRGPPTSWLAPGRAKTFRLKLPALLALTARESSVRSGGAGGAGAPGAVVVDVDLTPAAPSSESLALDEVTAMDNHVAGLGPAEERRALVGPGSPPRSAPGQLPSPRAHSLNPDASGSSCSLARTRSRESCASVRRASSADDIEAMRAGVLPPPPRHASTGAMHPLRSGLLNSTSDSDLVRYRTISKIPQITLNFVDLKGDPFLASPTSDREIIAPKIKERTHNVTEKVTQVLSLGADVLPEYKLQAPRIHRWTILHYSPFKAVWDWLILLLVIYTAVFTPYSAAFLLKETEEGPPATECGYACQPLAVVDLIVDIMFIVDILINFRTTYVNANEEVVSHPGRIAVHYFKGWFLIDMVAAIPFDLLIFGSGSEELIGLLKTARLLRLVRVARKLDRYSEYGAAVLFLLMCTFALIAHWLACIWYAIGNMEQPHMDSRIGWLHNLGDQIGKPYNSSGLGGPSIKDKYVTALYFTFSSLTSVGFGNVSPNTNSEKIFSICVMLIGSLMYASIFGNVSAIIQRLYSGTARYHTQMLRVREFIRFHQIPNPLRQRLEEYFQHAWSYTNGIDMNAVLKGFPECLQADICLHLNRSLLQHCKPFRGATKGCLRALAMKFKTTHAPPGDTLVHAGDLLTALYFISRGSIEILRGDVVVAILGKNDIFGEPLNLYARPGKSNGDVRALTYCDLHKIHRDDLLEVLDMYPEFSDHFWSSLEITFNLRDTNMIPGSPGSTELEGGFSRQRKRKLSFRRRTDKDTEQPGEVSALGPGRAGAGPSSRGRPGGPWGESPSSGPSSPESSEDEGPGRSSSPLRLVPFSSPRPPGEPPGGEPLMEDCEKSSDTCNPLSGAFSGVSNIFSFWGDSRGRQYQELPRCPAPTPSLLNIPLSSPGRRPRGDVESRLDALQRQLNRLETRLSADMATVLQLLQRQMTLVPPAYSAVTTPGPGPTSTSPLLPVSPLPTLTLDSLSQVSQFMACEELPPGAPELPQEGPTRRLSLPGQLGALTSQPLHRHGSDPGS
row,Structure (SMILES),"hERG current change (%, negative = inhibition) at 10uM [%]"
1,CC(=O)c1[nH]c(C)c(C(C)=O)c1C,13.9
2,Cc1ccc(N2C(=O)NC(=O)/C(=C\C=C\c3ccco3)C2=O)cc1C,-24
3,C=CCN(C(=O)Cc1cccs1)c1nc(-c2ccc(S(C)(=O)=O)cc2)cs1,23.3
4,CCC(C(=O)Nc1cccc(C(=O)O)c1)c1ccccc1 (centres unmarked),9.69
5,S=C(Nc1cccc(Cl)c1)N1CCN(Cc2ccccc2)CC1,-0.507
6,COc1ccccc1OCCNC(=O)c1ccccc1OCc1c(C)noc1C,2.7
7,C=CCc1c(C)nc2c(-c3ccccc3)cnn2c1N1CCOCC1,12.3
8,CC(Oc1ccc(Cl)cc1Cl)C(=O)NCc1ccncc1 (centres unmarked),-14.6
9,CCc1cccc2c(C(=S)N3CCCC3)c[nH]c12,8.97
10,O=c1c2ccccc2nc(/C=C/c2ccc([N+](=O)[O-])cc2)n1CCCO,-57.4
11,Cc1csc(NC(=O)Cc2c(F)cccc2Cl)n1,7.34
12,Cc1cc2[nH]c(=O)c(=O)[nH]c2cc1S(=O)(=O)N1CCN(c2ccccc2)CC1,0.741
13,Cc1[nH]c2ccccc2c1-c1csc(NC(=O)CN2CCOCC2)n1,15.1
14,C[C@H]1CN=C(Nc2ccccc2)N1CCC1CCCC1,-10.6
15,O=C(NNc1cccc(Cl)n1)c1c(Cl)cccc1Cl,15.5
16,COC(=O)c1cc2n3ccccc3c(C)c(-c3ccccc3)c-2c1C(=O)OC,-17.7
17,C=CCc1c(C)nc2cc(-c3ccc(C)cc3)[nH]n2c1=O,-0.286
18,CCCCn1c(N)c(N(CC)C(=O)c2cccc(C)c2)c(=O)[nH]c1=O,14.2
19,O=C(Cn1ncc2c(=O)oc3ccccc3c21)NCc1cccnc1,-9.2

row,Structure (SMILES),"hERG current change (%, negative = inhibition) at 10uM [%]"
1,Cc1ccc(CCNC(=O)c2cc(C)nn2-c2ccccc2)cc1,-18
2,CC(=O)c1c(C)[nH]c(C(=O)Nc2ccc(C)c(S(=O)(=O)N(C)C)c2)c1C,-11.7
3,O=C(CCC1CCCC1)NCCCNC(=O)CCC1CCCC1,4.72
4,CCOc1ccc(CCNC(=O)CCCn2c(=O)c3cccn3c3cccnc32)cc1OCC,-13.3
5,COc1ccc(/C=N/NC(=O)c2ccccc2OC)cc1COc1ccccc1[N+](=O)[O-],8.94
6,O=C(O)c1cc(O)ccc1NC(=O)C(c1ccccc1)c1ccccc1,7.66
7,Cc1cc(NC(=O)c2n[nH]c(=O)c3ccccc23)ccc1Br,4.09
8,COC1C(C)=C(C)C(=O)N1Cc1ccc(F)cc1 (centres unmarked),14.9
9,Cc1ccc(S(=O)(=O)c2ccc(-n3nc(C)cc3N)cc2)cc1,-4.01
10,Cc1ccc(NC(=S)N(CCN(C)C)Cc2cccs2)cc1,-19.3
11,COc1ccccc1-n1nc(C(=O)Nc2ccc3c(c2)OCO3)c2ccccc2c1=O,-1.71
12,O=C(CCNc1n[nH]c(=O)[nH]c1=O)N/N=C/c1ccccc1Br,14.5
13,CCC(C)c1ccccc1NC(=O)COC(=O)c1ccc2[nH]c3c(c2c1)CCCC3 (centres unmarked),-7.64
14,Cc1ccc(-n2nnc3c(SCC(=O)NCc4ccco4)ncnc32)cc1,8
15,O=C(Nc1ccc(F)cc1)c1ccc2c(=O)n3c(nc2c1)CCCCC3,-51.8
16,Cc1ccc(C(O)c2cccnc2)o1 (centres unmarked),6.69
17,COc1ccc(C2Nc3ccccc3C(=O)N2c2ccccc2)cc1COc1ccccn1 (centres unmarked),0.397
18,CC(NC(=O)COC(=O)c1ccc2c(c1)S(=O)(=O)N=C1CCCCCN12)C12CC3CC(CC(C3)C1)C2 (centres unmarked),6.54
19,COc1ccc(-c2nc3ccc(N4CCN(C)CC4)cc3c(=O)[nH]2)cc1,8.45

row,Structure (SMILES),"hERG current change (%, negative = inhibition) at 10uM [%]"
1,COc1cccc(NC(=O)CSc2nc3scc(C)c3c(=O)[nH]2)c1,10.5
2,CC1CCCCN1Cc1ccc(N)cc1 (centres unmarked),12.7
3,Oc1ccccc1Oc1ncc(Br)c(Cl)n1,13.6
4,Cc1ccn2c(=O)nc(SCC(=O)NCc3ccc(F)cc3)nc2c1,-0.946
5,CC(=O)N1CCC(C(=O)OCc2ccccc2F)(c2ccccc2)CC1,2.43
6,N#C/C(=C\c1c(N2CCOCC2)nc2ccccn2c1=O)S(=O)(=O)c1ccccc1,-63.2
7,CC1CN(Cc2nc3c(c(=O)n(C)c(=O)n3C)n2Cc2cccc(Cl)c2)CC(C)O1 (centres unmarked),-14.2
8,O=C(CC1C(=O)NCCN1C/C=C/c1ccccc1)NCCCC1CCCC1 (centres unmarked),-28.1
9,COc1ccc(O)c(/C=C2/SC(=S)N(Cc3ccccc3)C2=O)c1,19.7
10,O=C(NCC1CCCO1)c1ccc(Br)c(S(=O)(=O)N2CCOCC2)c1 (centres unmarked),-16
11,O=C(CN1CCN(S(=O)(=O)c2ccc(Br)cc2)CC1)N/N=C/c1ccccc1C(=O)O,14.2
12,CN(C)c1cc[n+](CC(=O)c2ccc(Br)cc2)cc1.[Cl-],5.59
13,Cc1ccc(C(=O)N/C(=C\c2cn(C)c3ccccc23)C(=O)OCCN(C)C)cc1,-26.5
14,CCc1nc(SCC(=O)N2CCc3cc(OC)c(OC)cc3C2)c(C#N)cc1C,-27.2
15,CCCSc1cc(=O)n(-c2ccccc2)nc1C(=O)OCC,-8.04
16,COCCn1c(N)c(Sc2ccc([N+](=O)[O-])cc2)c(=O)[nH]c1=O,-46.5
17,CCN(CC)S(=O)(=O)c1cccc(C(=O)N[C@H](C(=O)Nc2nc3ccccc3s2)C(C)C)c1,-0.123
18,CC(C)(C)OC(=O)Nc1ncnc2c1ncn2C1OC(CO)C2OC(C)(C)OC21 (centres unmarked),12.9
